From article PMC6937578
Results are given in words; binding and its absence hold for the method and conditions named. For some assays here: In cells and extracts the contact can be indirect. Some binding calls cover weakened binding; strength is not graded here. For some assays here: Where a sequence is shown, tags or fusion partners need not be part of it. One block for each binder: values may come before it.

Tests used:
FLAG-CRKL = FLAG-CRKL (UniProt P46109); assay: co-IP; HEK293T cells co-transfected, lysed 24 h after transfection (20 mM Tris, 150 mM NaCl, 0.5% Nonidet P-40, 1 mM EDTA, pH 8.0); immunoprecipitation with anti-FLAG M2 beads, blot for Myc
FLAG-Grb2 = FLAG-Grb2 (UniProt P62993); assay: as above
GST-CRKL = GST-CRKL (UniProt P46109); assay: pull-down; GST-tagged bait (50 or 100 μg) on 100 μl GSH beads in PBS; 50 μg of BCAP (FL) or dephosphorylated BCAP (FL) applied; three washes with PBS, elution with 10 mM reduced GSH, SDS-PAGE; both purified
GST-Grb2-SH2 = GST-Grb2-SH2 (UniProt P62993); assay: as above
GST-p85-SH3 = GST-p85-SH3 (UniProt P27986); assay: as above

binding (FLAG-CRKL): no binding | binding (FLAG-Grb2): binds
B1: Myc-BCAP (protein, UniProt Q6ZUJ8 1-805)
chain: MAASGVPRGCDILIVYSPDAEEWCQYLQTLFLSSRQVRSQKILTHRLGPEASFSAEDLSLFLSTRCVVVLLSAELVQHFHKPALLPLLQRAFHPPHRVVRLLCGVRDSEEFLDFFPDWAHWQELTCDDEPETYVAAVKKAISEDSGCDSVTDTEPEDEKVVSYSKQQNLPTVTSPGNLMVVQPDRIRCGAETTVYVIVRCKLDDRVATEAEFSPEDSPSVRMEAKVENEYTISVKAPNLSSGNVSLKIYSGDLVVCETVISYYTDMEEIGNLLSNAANPVEFMCQAFKIVPYNTETLDKLLTESLKNNIPASGLHLFGINQLEEEDMMTNQRDEELPTLLHFAAKYGLKNLTALLLTCPGALQAYSVANKHGHYPNTIAEKHGFRDLRQFIDEYVETVDMLKSHIKEELMHGEEADAVYESMAHLSTDLLMKCSLNPGCDEDLYESMAAFVPAATEDLYVEMLQASTSNPIPGDGFSRATKDSMIRKFLEGNSMGMTNLERDQCHLGQEEDVYHTVDDDEAFSVDLASRPPVPVPRPETTAPGAHQLPDNEPYIFKVFAEKSQERPGNFYVSSESIRKGPPVRPWRDRPQSSIYDPFAGMKTPGQRQLITLQEQVKLGIVNVDEAVLHFKEWQLNQKKRSESFRFQQENLKRLRDSITRRQREKQKSGKQTDLEITVPIRHSQHLPAKVEFGVYESGPRKSVIPPRTELRRGDWKTDSTSSTASSTSNRSSTRSLLSVSSGMEGDNEDNEVPEVTRSRSPGPPQVDGTPTMSLERPPRVPPRAASQRPPTRETFHPPPPVPPRGR

binding (GST-CRKL): no binding | binding (GST-Grb2-SH2): no binding | binding (GST-p85-SH3): binds
B2: dephosphorylated BCAP (FL) (protein, UniProt Q6ZUJ8 1-805)
chain: B1 chain
modifications: dephosphorylated with λ-protein phosphatase
